The record followed here is a collection of fitness landscapes (doi:10.1126/science.1257360).

The chains are these.
B1: PhoQ; a variant is named by its letters at X, in order, P23837 (parent)
chain: MKKLLRLFFPLSLRVRFLLATAAVVLVLSLAYGMVALIGYSVSFDKTTFRLLRGESNLFYTLAKWENNKLHVELPENIDKQSPTMTLIYDENGQLLWAQRDVPWLMKMIQPDWLKSNGFHEIEADVNDTSLLLSGDHSIQQQLQEVREDDDDAEMTHSVAVNVYPATSRMPKLTIVVVDTIPVELKSSYMVWSWFIYVLSANLLLVIPLLWVAAWWSLRPIEALAKEVRELEEHNRELLNPATTRELTSLVRNLNRLLKSERERYDKYRTTLTDLTHSLKTPLXXLQXXLRSLRSEKMSVSDAEPVMLEQISRISQQIGYYLHRASMRGGTLLSRELHPVAPLLDNLTSALNKVYQRKGVNISLDISPEISFVGEQNDFVEVMGNVLDNACKYCLEFVEISARQTDEHLYIVVEDDGPGIPLSKREVIFDRGQRVDTLRPGQGVGLAVAREITEQYEGKIVAGESMLGGARMEVIFGRQHSAPKDE

Some of the results follow.

Variants of B1 are the subject of this test. Description: enrichment ratio after two sorts for PhoP signalling (ratio (wild type AVST 3.29)); higher = more functional. The following applies: with PhoP (E. coli).
On to EGKQ, for which the enrichment ratio is no more than 0.25.

Consider QPME, for which the enrichment ratio was no more than 0.25.

As to PIQG, the enrichment ratio was no more than 0.25.

As for RQNT, the enrichment ratio was no more than 0.25.

Turning to QHFE, the enrichment ratio is no more than 0.25.

Turning to FRMC, the enrichment ratio is no more than 0.25.

Regarding MQDC, the enrichment ratio is no more than 0.25.

As for ENFC, the enrichment ratio was no more than 0.25.

Turning to WYVF, the enrichment ratio was no more than 0.25.

Turning to RVKS, the enrichment ratio was no more than 0.25.

Turning to YRNM, the enrichment ratio was no more than 0.25.

In the case of EFIM, the enrichment ratio is no more than 0.25.

As to FLNS, the enrichment ratio is no more than 0.25.

As for EKYF, the enrichment ratio is no more than 0.25.

Regarding MAEY, the enrichment ratio is no more than 0.25.

As to MFEG, the enrichment ratio was no more than 0.25.

Consider YSMK, for which the enrichment ratio is no more than 0.25.

Consider EHAA, for which the enrichment ratio is no more than 0.25.

With RSQG, the enrichment ratio is no more than 0.25.

In the case of REHV, the enrichment ratio is no more than 0.25.

Take DRFW: the enrichment ratio was no more than 0.25.

As to MHCH, the enrichment ratio is no more than 0.25.

As for HLSS, the enrichment ratio is no more than 0.25.

As to TICF, the enrichment ratio is no more than 0.25.

ADYY: the enrichment ratio is no more than 0.25.

On to DGCT, for which the enrichment ratio was no more than 0.25.

For ETPI, the enrichment ratio is no more than 0.25.

In the case of IPFL, the enrichment ratio is no more than 0.25.

As for PSSP, the enrichment ratio was no more than 0.25.

Turning to SNDL, the enrichment ratio was no more than 0.25.

In the case of VYGT, the enrichment ratio is no more than 0.25.

Consider MNSF, for which the enrichment ratio was found to be 0.711.

Consider WGWG, for which the enrichment ratio was no more than 0.25.

As to RVLV, the enrichment ratio was no more than 0.25.

Take YCER: the enrichment ratio was no more than 0.25.

On to DECT, for which the enrichment ratio was no more than 0.25.

For the variant GDCM, the enrichment ratio stood at 8.58.

Take PALD: the enrichment ratio is no more than 0.25.

In the case of MKDM, the enrichment ratio was no more than 0.25.

SIYK: the enrichment ratio was no more than 0.25.

Regarding YKVS, the enrichment ratio was no more than 0.25.

Turning to YDYV, the enrichment ratio is no more than 0.25.

As to DFSK, the enrichment ratio was no more than 0.25.

With TWKA, the enrichment ratio is no more than 0.25.

Consider PWRI, for which the enrichment ratio was no more than 0.25.

In the case of PCTD, the enrichment ratio was no more than 0.25.

For the variant GHYV, the enrichment ratio is no more than 0.25.

On to HLWQ, for which the enrichment ratio was no more than 0.25.

Take DVMY: the enrichment ratio is no more than 0.25.

Regarding ADAT, the enrichment ratio was no more than 0.25.

As for WYHG, the enrichment ratio is no more than 0.25.

For SDVD, the enrichment ratio was no more than 0.25.

With SHKM, the enrichment ratio was no more than 0.25.

In the case of AGGF, the enrichment ratio was 2.48.

As to AECW, the enrichment ratio came out at 2.86.

In the case of QATH, the enrichment ratio was no more than 0.25.

As to QYNE, the enrichment ratio was no more than 0.25.

RSTL: the enrichment ratio was no more than 0.25.

Take WFDN: the enrichment ratio was no more than 0.25.

Consider ARMI, for which the enrichment ratio is no more than 0.25.

For the variant WKDN, the enrichment ratio is no more than 0.25.

As for LAQM, the enrichment ratio is no more than 0.25.

For LRIN, the enrichment ratio is no more than 0.25.

In the case of NHIN, the enrichment ratio is no more than 0.25.

As to ILTQ, the enrichment ratio is no more than 0.25.

FQGP: the enrichment ratio was no more than 0.25.

DPDY: the enrichment ratio was no more than 0.25.

For NPCS, the enrichment ratio is no more than 0.25.

DGIF: the enrichment ratio is no more than 0.25.

With GHVS, the enrichment ratio was no more than 0.25.

Consider FKAR, for which the enrichment ratio is no more than 0.25.

With PSQE, the enrichment ratio was no more than 0.25.

Consider PTQP, for which the enrichment ratio is no more than 0.25.

As to VCIC, the enrichment ratio was no more than 0.25.

For KDVV, the enrichment ratio is no more than 0.25.

In the case of WIQL, the enrichment ratio is no more than 0.25.

Turning to MKRF, the enrichment ratio is no more than 0.25.

Regarding PEIW, the enrichment ratio was no more than 0.25.

For QYQD, the enrichment ratio is no more than 0.25.

As for WLRC, the enrichment ratio was no more than 0.25.

For NCKA, the enrichment ratio was no more than 0.25.

VHGN: the enrichment ratio was no more than 0.25.

Take WYRI: the enrichment ratio was no more than 0.25.

On to IGWM, for which the enrichment ratio was no more than 0.25.

With YHIR, the enrichment ratio was no more than 0.25.

With QHVV, the enrichment ratio is no more than 0.25.

Turning to LFAY, the enrichment ratio is no more than 0.25.

For the variant NTAE, the enrichment ratio was no more than 0.25.

Consider HDKN, for which the enrichment ratio is no more than 0.25.

Turning to MRYV, the enrichment ratio was no more than 0.25.

Consider PVWL, for which the enrichment ratio is no more than 0.25.

As to WVRL, the enrichment ratio was no more than 0.25.

On to LRKA, for which the enrichment ratio was no more than 0.25.

YWEW: the enrichment ratio was no more than 0.25.

Regarding MQWF, the enrichment ratio was no more than 0.25.

DREV: the enrichment ratio was no more than 0.25.

MKGH: the enrichment ratio was no more than 0.25.

On to DQSR, for which the enrichment ratio was no more than 0.25.

On to PPCW, for which the enrichment ratio was no more than 0.25.

KQSP: the enrichment ratio is no more than 0.25.

Take ETSG: the enrichment ratio was no more than 0.25.

For the variant GNTQ, the enrichment ratio is no more than 0.25.

Consider IFDH, for which the enrichment ratio is no more than 0.25.

Take LIRT: the enrichment ratio is no more than 0.25.

Turning to VRTC, the enrichment ratio is no more than 0.25.

Take QKML: the enrichment ratio was no more than 0.25.

As for ERSQ, the enrichment ratio is no more than 0.25.

In the case of SPHG, the enrichment ratio was no more than 0.25.

In the case of EADI, the enrichment ratio is no more than 0.25.

Turning to ADWV, the enrichment ratio was no more than 0.25.

For NTGI, the enrichment ratio was no more than 0.25.

For NTAS, the enrichment ratio was no more than 0.25.

On to AARH, for which the enrichment ratio is no more than 0.25.

NRAA: the enrichment ratio was no more than 0.25.

Regarding IYLA, the enrichment ratio was no more than 0.25.

Turning to YSAH, the enrichment ratio is no more than 0.25.

For ASCR, the enrichment ratio is 4.6.

On to ITDY, for which the enrichment ratio is no more than 0.25.

Consider SKFL, for which the enrichment ratio was no more than 0.25.

Take KPLG: the enrichment ratio was no more than 0.25.

EGIP: the enrichment ratio was no more than 0.25.

Regarding QSMG, the enrichment ratio is no more than 0.25.

Regarding LKWC, the enrichment ratio was no more than 0.25.

In the case of MHPK, the enrichment ratio was no more than 0.25.

Regarding DYYH, the enrichment ratio was no more than 0.25.

With QQNC, the enrichment ratio was no more than 0.25.

In the case of SLTC, the enrichment ratio was determined as 2.93.

DNQA: the enrichment ratio is no more than 0.25.

Take IAPR: the enrichment ratio is no more than 0.25.

Regarding QILS, the enrichment ratio was no more than 0.25.

With VDNK, the enrichment ratio is no more than 0.25.

On to NFFF, for which the enrichment ratio is no more than 0.25.

As to MLYL, the enrichment ratio was found to be 10.2.

As for AQDG, the enrichment ratio was no more than 0.25.

Regarding LPQN, the enrichment ratio was no more than 0.25.

Regarding QHDQ, the enrichment ratio was no more than 0.25.

For the variant TEAH, the enrichment ratio was 40.

Turning to SQEY, the enrichment ratio is no more than 0.25.

In the case of YRWD, the enrichment ratio was no more than 0.25.

NNGP: the enrichment ratio was no more than 0.25.

KNLE: the enrichment ratio is no more than 0.25.

For the variant HPFE, the enrichment ratio is no more than 0.25.

With WRTP, the enrichment ratio was no more than 0.25.

With TIVY, the enrichment ratio is no more than 0.25.

DHME: the enrichment ratio is no more than 0.25.

DCQC: the enrichment ratio was no more than 0.25.

Turning to QMSY, the enrichment ratio came to 4.57.

With MCWL, the enrichment ratio stood at 6.27.

In the case of MKAD, the enrichment ratio is no more than 0.25.

On to FTKM, for which the enrichment ratio is no more than 0.25.

KQHL: the enrichment ratio is no more than 0.25.

On to YLTL, for which the enrichment ratio stood at 1.11.

As for NPPK, the enrichment ratio was no more than 0.25.
